Results reported in patent publication US20230137139A1, “BIOSYNTHESIS OF CANNABINOIDS AND C[…]” (priority 2020, published 2023).

Tested on: CBCA production
Assay: In vivo TS activity assay, Example 4 CBCAS enzymes with and without signal peptides, no pH adjustment
Format: cell-based
Details: strains with (Y) or without (N) N-terminal and C-terminal signal peptides; no pH adjustment at Day 4; S. cerevisiae
Protocol: An assay to detect TS activity was conducted as follows: each thawed glycerol stock of candidate CBCAS transformants was stamped into a well of YEP+4% dextrose media. Samples were incubated at 30° C. in a shaking incubator for 2 days. A portion of each of the resulting cultures was stamped into a well of YEP+4% galactose+1 mM olivetolic acid (FIG. 1 Structure 6a). Samples were incubated at 20° C. and shaken in a shaking incubator for 4 days. Every 24 hours during those 4 days, 2% galactose and 1 mM olivetolic acid were spiked into the cultures. Sodium citrate buffer adjusted to pH 5.5 was added to each well at a final concentration of 100 mM. Samples were incubated at 20° C. and shaken in a shaking incubator for 2 days. A portion of each of the resulting production cultures was stamped into a well of phosphate buffered saline (PBS). Optical measurements were taken on a plate reader, with absorbance measured at 600 nm and fluorescence at 528 nm with 485 nm excitation. Samples were incubated at 30° C. in a shaking incubator for 2 days. 100% methanol was stamped into the production cultures in half-height deepwell plates. Plates were heat sealed and frozen. Samples were then thawed for 30 min and spun down at 4° C. […] CBCA, THCA, and CBDA production in the samples was quantified via liquid chromatography-mass spectrometry (LC-MS). […]

B1: t861591 (protein)
chain: MAQPPSSAFATCLNDVCGGRSGCVGYPSDILYQINWVDRYNLDINLEPAAVTKPEITEDVAAFIKCASENNVKVQARSGGHSYANHGLGGEDGALVIDLENFQHFSMNWDNWQATIGAGHKLHDVTEKLHDNGGRAISHGTCPGVGLGGHATIGGLGPSSRMWGSCLDHVVEVEVVTADGKIQRASEDENSDLFFALKGAGASFGIITEFVMRTNEEPGDVVEYTFSLTFSRHRDLSPVFEAWQNLISDPDLDRRFGSEFVMHELGAIITGTFFGTEEEFEATGIPDRIPTGKKSIVVNDWLGSVAQQAQDAALWLSDLSTAFTAKSLAFTKDQLLSSESIMDLMDYIDDANRGTLIWFLIFDVTGGRINDVPMNATAYRHRDKVMFCQGYGIGIPTLNGRTREFIEGINSLIRSSVPTNLSTYAGYVDASLESPQDSYWGPNLDALGQVKEDWDPSDLFSNPQSVRPGQKSVVDYFDNRASSNGSEDSSGGSNGGTRDEQGGCWSWRRSGPAFAVFVALFVGFPTPQTSWVQKQNLRDPALDLTDAESPSRTPVVNPNTLTTDTMAKLSRGAPGGKLKMTLGLPVGAVMNCADNSGARNLYIISVKGIGARLNRLPAGGVGDMVMATVKKGKPELRKKVHPAVIVRQSKPWKRFDGVFLYFEDNAGVIVNPKGEMKGSAITGPVGKEAAELWPRIASNSGVVM
modifications: N- and C-terminal signal peptides
Average CBCA: 0.00 µg/L
